# Data as given in article PMC9911399, “Two distinct binding modes provide the RNA-binding protein RbFox with extraordinary sequence specificity”.
# Where a chain is given by its changes, count along the chain named. This is one part of the list.
# T1: RBFOX1 RRM (Homo sapiens, UniProt Q9NWB1 109-208)
# T1 sequence: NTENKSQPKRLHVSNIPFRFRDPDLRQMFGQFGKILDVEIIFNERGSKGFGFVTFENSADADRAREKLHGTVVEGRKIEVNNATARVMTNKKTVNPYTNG
# B1: UGAGGGU (DNA:RNA)
# RNA: GGGAGACCGGAAUUCAGAUUGUCCUGAGGGUUUAAAUCCCGUCGUAGCCACCA
# DNA 1: CAATCTGAATTCCGGTCTCCC
# DNA 2: TGGTGGCTACGACGGGATT
# B2: AAGGUGU (DNA:RNA)
# RNA: B1 RNA with U25A, G26A, A27G, G29U
# DNA 1: CAATCTGAATTCCGGTCTCCC
# DNA 2: TGGTGGCTACGACGGGATT
# B3: ACAUACA (DNA:RNA)
# RNA: B1 RNA with U25A, G26C, G28U, G29A, G30C, U31A
# DNA 1: CAATCTGAATTCCGGTCTCCC
# DNA 2: TGGTGGCTACGACGGGATT
# B4: UACGUGG (DNA:RNA)
# RNA: B1 RNA with G26A, A27C, G29U, U31G
# DNA 1: CAATCTGAATTCCGGTCTCCC
# DNA 2: TGGTGGCTACGACGGGATT
# B5: CUGCUUG (DNA:RNA)
# RNA: GGGAGACCGGAAUUCAGAUUGUCCCUGCUUGUUAAAUCCCGUCGUAGCCACCA
# DNA 1: CAATCTGAATTCCGGTCTCCC
# DNA 2: TGGTGGCTACGACGGGATT
# B6: GUAGCCC (DNA:RNA)
# RNA: B1 RNA with U25G, G26U, G29C, G30C, U31C
# DNA 1: CAATCTGAATTCCGGTCTCCC
# DNA 2: TGGTGGCTACGACGGGATT
# B7: CUUGCUC (DNA:RNA)
# RNA: B5 RNA with G27U, C28G, U29C, G31C
# DNA 1: CAATCTGAATTCCGGTCTCCC
# DNA 2: TGGTGGCTACGACGGGATT
# B8: AUUAACA (DNA:RNA)
# RNA: B5 RNA with C25A, G27U, C28A, U29A, U30C, G31A
# DNA 1: CAATCTGAATTCCGGTCTCCC
# DNA 2: TGGTGGCTACGACGGGATT
# B9: AGAGCGA (DNA:RNA)
# RNA: B1 RNA with U25A, G29C, U31A
# DNA 1: CAATCTGAATTCCGGTCTCCC
# DNA 2: TGGTGGCTACGACGGGATT
# B10: GCUCUUG (DNA:RNA)
# RNA: B5 RNA with C25G, U26C, G27U
# DNA 1: CAATCTGAATTCCGGTCTCCC
# DNA 2: TGGTGGCTACGACGGGATT
# B11: GGCCCAU (DNA:RNA)
# RNA: B1 RNA with U25G, A27C, G28C, G29C, G30A
# DNA 1: CAATCTGAATTCCGGTCTCCC
# DNA 2: TGGTGGCTACGACGGGATT
# B12: CCAAUCG (DNA:RNA)
# RNA: B5 RNA with U26C, G27A, C28A, U30C
# DNA 1: CAATCTGAATTCCGGTCTCCC
# DNA 2: TGGTGGCTACGACGGGATT
# B13: AUCUGUC (DNA:RNA)
# RNA: B5 RNA with C25A, G27C, C28U, U29G, G31C
# DNA 1: CAATCTGAATTCCGGTCTCCC
# DNA 2: TGGTGGCTACGACGGGATT
# B14: GCGUAGA (DNA:RNA)
# RNA: B5 RNA with C25G, U26C, C28U, U29A, U30G, G31A
# DNA 1: CAATCTGAATTCCGGTCTCCC
# DNA 2: TGGTGGCTACGACGGGATT
# B15: UGAUCGG (DNA:RNA)
# RNA: B1 RNA with G28U, G29C, U31G
# DNA 1: CAATCTGAATTCCGGTCTCCC
# DNA 2: TGGTGGCTACGACGGGATT
# B16: UUACGGU (DNA:RNA)
# RNA: B1 RNA with G26U, G28C
# DNA 1: CAATCTGAATTCCGGTCTCCC
# DNA 2: TGGTGGCTACGACGGGATT
# B17: GCUUUUU (DNA:RNA)
# RNA: B5 RNA with C25G, U26C, G27U, C28U, G31U
# DNA 1: CAATCTGAATTCCGGTCTCCC
# DNA 2: TGGTGGCTACGACGGGATT
# B18: UUGCCCA (DNA:RNA)
# RNA: B5 RNA with C25U, U29C, U30C, G31A
# DNA 1: CAATCTGAATTCCGGTCTCCC
# DNA 2: TGGTGGCTACGACGGGATT
# B19: GCAGUGU (DNA:RNA)
# RNA: B1 RNA with U25G, G26C, G29U
# DNA 1: CAATCTGAATTCCGGTCTCCC
# DNA 2: TGGTGGCTACGACGGGATT
# B20: CAGAAAG (DNA:RNA)
# RNA: B5 RNA with U26A, C28A, U29A, U30A
# DNA 1: CAATCTGAATTCCGGTCTCCC
# DNA 2: TGGTGGCTACGACGGGATT
# Target: T1, RBFOX1 RRM
# Assay: EMSA; HiTS-Eq, 1 nM pool, 10 min; buffer printed only for the single-RNA assays: 10 mM Tris pH 7.5, 150 mM NaCl, 3.4 mM EDTA, 0.001% NP-40, 30 C
# Conditions: tags: His6 N-terminal (pET28a); label: 5' 32P
# Summary of the method: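 Purified RbFox RRM (wild type or mutant) was equilibrated for 10 min in 50 µL with 1 nM of a 5′-radiolabelled pool of RNA with 7 randomized nucleotides, its flanks annealed to DNA oligonucleotides, across increasing protein concentrations. Free RNA was separated by 8% native PAGE, excised, reverse-transcribed, PCR-barcoded and sequenced on an Illumina HiSeq 2500. Relative association constants came from read-count changes of each variant against the control reaction, normalised to the cognate motif.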
row,Binder,binding signal
1,B1,0.00661 KA relative to UGCAUGU
2,B2,0.012 KA relative to UGCAUGU
3,B3,0.00154 KA relative to UGCAUGU
4,B4,0.00795 KA relative to UGCAUGU
5,B5,0.0459 KA relative to UGCAUGU
6,B6,0.00684 KA relative to UGCAUGU
7,B7,0.0175 KA relative to UGCAUGU
8,B8,0.000726 KA relative to UGCAUGU
9,B9,0.0101 KA relative to UGCAUGU
10,B10,0.014 KA relative to UGCAUGU
11,B11,0.00262 KA relative to UGCAUGU
12,B12,0.00227 KA relative to UGCAUGU
13,B13,0.00822 KA relative to UGCAUGU
14,B14,0.0101 KA relative to UGCAUGU
15,B15,0.0143 KA relative to UGCAUGU
16,B16,0.00767 KA relative to UGCAUGU
17,B17,0.013 KA relative to UGCAUGU
18,B18,0.0104 KA relative to UGCAUGU
19,B19,0.0135 KA relative to UGCAUGU
20,B20,0.00694 KA relative to UGCAUGU
